# Assay results from a collection of fitness landscapes (doi:10.1016/j.celrep.2020.107928).
# In all, about 81,000 sequences were measured (“one-hybrid fitness for binding NBS DNA”: median about -0.1, highest 2% from about 0.36 on). The list shows a part of the results.
# B1: Caulobacter ParB omega fusion; a variant is named by its letters at X, in order, B8GW30 (parent)
# chain: MESVVVGEPGMSEGRRGLGRGLSALLGEVDAAPAQAPGEQLGGSREAPIEILQRNPDQPRRTFREEDLEDLSNSIREKGVLQPILVRPSPDTAGEYQIVAGERAWRAAQRAGLKTVPIMVRELDDLAVLEIGIIENVQRADLNVLEEALSYKVLMEKFERTQENIAQTIGKSXSHVANXMRLLXLPDEVQSYLVSGELTAXHARAIAAAADPVALAKQIIEGGLSVRETEALARKAPNLSAGKSKGGRPPRVKDTDTQALESDLSSVLGLDVSIDHRGSTGTLTITYATLEQLDDLCNRLTRGI
# Variants of: B1
# Test: one-hybrid fitness for binding NBS DNA (the Noc-binding site; scaled: cognate 1, non-cognate 0); higher = stronger binding
# Conditions: with NBS DNA site
# Summary of the method: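 Values were rescaled so that cognate is 1 and non-cognate is 0. Each is a fitness, the log change in a variant's read ratio to wild type from Illumina reads of plasmids before and after selection, with three replicate libraries pooled and variants under 10 reads dropped. Selection of the Caulobacter ParB libraries, four specificity codons randomised, used E. coli USO with a HIS3 reporter, site 19 bp from the promoter, on M9-minus-histidine with 0.1 mM IPTG and 5 mM 3-AT for 48 hours at 37°C.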
row,Variant,one-hybrid fitness for binding NBS DNA
1,TPPD,≤ 0.2
2,NTDS,≤ 0.2
3,SIVS,≤ 0.2
4,AALT,≤ 0.2
5,CDAT,≤ 0.2
6,EHNR,≤ 0.2
7,DIHC,≤ 0.2
8,TVLN,≤ 0.2
9,ATYY,≤ 0.2
10,PPES,≤ 0.2
11,QPHL,≤ 0.2
12,HDER,≤ 0.2
13,AKML,≤ 0.2
14,IHYG,≤ 0.2
15,LIYS,≤ 0.2
16,RYIW,≤ 0.2
17,QNHV,≤ 0.2
18,RVYN,≤ 0.2
19,KSKT,0.215
20,NDLS,≤ 0.2
21,WIYG,≤ 0.2

row,Variant,one-hybrid fitness for binding NBS DNA
1,QIRM,0.276
2,AVPH,≤ 0.2
3,FTHE,≤ 0.2
4,YKVG,≤ 0.2
5,HQKR,≤ 0.2
6,RLLS,0.266
7,QALC,≤ 0.2
8,TDSE,≤ 0.2
9,YASF,≤ 0.2
10,HRCN,≤ 0.2
11,CAHY,≤ 0.2
12,NRCK,≤ 0.2
13,CPTI,≤ 0.2
14,GNHE,≤ 0.2
15,NSQI,≤ 0.2
16,LVCS,≤ 0.2
17,CRYT,≤ 0.2
18,MQES,≤ 0.2
19,PWYP,≤ 0.2
20,LVHV,≤ 0.2
21,PYHT,≤ 0.2

row,Variant,one-hybrid fitness for binding NBS DNA
1,DPMR,≤ 0.2
2,AGNP,≤ 0.2
3,RRDH,0.371
4,ITPA,≤ 0.2
5,AGSI,≤ 0.2
6,MFLS,≤ 0.2
7,FVNW,≤ 0.2
8,SRNI,≤ 0.2
9,AITI,≤ 0.2
10,YDKR,≤ 0.2
11,QRNG,0.381
12,RHKH,0.326
13,SHIS,≤ 0.2
14,KRII,≤ 0.2
15,TFFR,≤ 0.2
16,VLIY,≤ 0.2
17,DCLS,≤ 0.2
18,RYNR,0.519
19,ALGN,≤ 0.2
20,DSLD,≤ 0.2
21,TLHP,≤ 0.2

row,Variant,one-hybrid fitness for binding NBS DNA
1,VPVQ,≤ 0.2
2,LNIG,≤ 0.2
3,LAES,≤ 0.2
4,VHAN,≤ 0.2
5,GYQN,≤ 0.2
6,TLGL,≤ 0.2
7,TGGK,≤ 0.2
8,PTIG,≤ 0.2
9,QYLP,≤ 0.2
10,HPSR,≤ 0.2
11,PKEV,≤ 0.2
12,RDTT,≤ 0.2
13,RPDK,≤ 0.2
14,QYHM,≤ 0.2
15,CACS,≤ 0.2
16,QAVL,≤ 0.2
17,SNPE,≤ 0.2
18,MSVF,≤ 0.2
19,ATSI,≤ 0.2
20,WQSY,≤ 0.2
21,MAQT,≤ 0.2
